For experiment [1], the system named is A549-Dual. As to the kind of experiment: NF-kB reporter (SEAP) activity, viability-corrected, relative to vehicle (fold change vs vehicle); higher = more activation of STING-IRF / NF-kB immune response reporter. As to conditions: 10 µM.
Experiment [2] relates to A549-Dual. As to the kind of experiment: ISRE reporter (Lucia luciferase) activity, viability-corrected, relative to vehicle (fold change vs vehicle); higher = more activation of STING-IRF / NF-kB immune response reporter. As to conditions: 10 µM.

This is one part of the list. Single values of this set are uncertain. Values with irradiation are relative to irradiated vehicle.
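Throughout, for NF-kB reporter (SEAP) activity, viability-corrected, relative to vehicle: viability correction based on the alamar blue assay, with concentrations leaving 10% survival or less dropped.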

On to `CCN(CC)CCOC(=O)C(c1ccccc1)C1CCCCC1.Cl` (stereo not given) [Drofenine Hydrochloride], for which the NF-kB reporter in the experiment with A549-Dual [1] (irradiation: 8 Gy/4 fr) amounted to 0.848; with A549-Dual [1] (irradiation: none), 0.675. Further, the ISRE reporter with A549-Dual [2] (irradiation: 8 Gy/4 fr) worked out at 0.835; with A549-Dual [2] (irradiation: none), 0.736.

Consider `CCn1nc(C(=O)O)c(=O)c2cc3c(cc21)OCO3` [Cinoxacin], for which the NF-kB reporter in the experiment on A549-Dual [1] (irradiation: 8 Gy/4 fr) is 0.924; in the experiment with A549-Dual [1] (irradiation: none), 0.962. For the same compound, the ISRE reporter with A549-Dual [2] (irradiation: 8 Gy/4 fr) was determined as 0.744; in the experiment on A549-Dual [2] (irradiation: none) it was 0.547.

For `CCC(=O)NCCC1CCc2ccc3c(c21)CCO3` (stereo not given) [Ramelteon], the NF-kB reporter in the experiment with A549-Dual [1] (irradiation: 8 Gy/4 fr) was found to be 0.68; in the experiment with A549-Dual [1] (irradiation: none), 0.888. The ISRE reporter in the experiment on A549-Dual [2] (irradiation: 8 Gy/4 fr) came to 0.686; in the experiment with A549-Dual [2] (irradiation: none), 0.767.

`Cc1cccc(C)c1OCC(C)N.Cl` (stereo not given) [Mexiletine HCl]: the NF-kB reporter with A549-Dual [1] (irradiation: 8 Gy/4 fr) came out at 0.995; in the experiment with A549-Dual [1] (irradiation: none), 0.794. For the same compound, the ISRE reporter in the experiment on A549-Dual [2] (irradiation: 8 Gy/4 fr) is 0.943; in the experiment on A549-Dual [2] (irradiation: none), 0.711.

Turning to `CO/N=C(/C(=O)NC1C(=O)N2C(C(=O)[O-])=C(CSc3nc(=O)c([O-])nn3C)CSC12)c1csc(N)n1.[Na+].[Na+]` (stereo not given) [Ceftriaxone Sodium], the NF-kB reporter in the experiment on A549-Dual [1] (irradiation: 8 Gy/4 fr) was 0.853; with A549-Dual [1] (irradiation: none), 0.742. The results for the ISRE reporter in the experiment with A549-Dual [2] (irradiation: 8 Gy/4 fr) and in the experiment on A549-Dual [2] (irradiation: none) were 0.723 and 0.649, respectively.

On to `CS(=O)(=O)c1ccc(C2=C(c3ccccc3)C(=O)OC2)cc1` [Rofecoxib], for which the values for the NF-kB reporter in the experiment on A549-Dual [1] (irradiation: 8 Gy/4 fr) and in the experiment on A549-Dual [1] (irradiation: none) were 0.701 and 0.938, respectively. The ISRE reporter in the experiment on A549-Dual [2] (irradiation: 8 Gy/4 fr) is 0.6; with A549-Dual [2] (irradiation: none) it was 0.681.

Turning to `O=C(O)C(O)C(O)C(=O)O` (stereo not given) [Tartaric acid], the NF-kB reporter stood at 1.12 in the experiment with A549-Dual [1] (irradiation: 8 Gy/4 fr) and 1.11 in the experiment on A549-Dual [1] (irradiation: none). Moreover, the figures for the ISRE reporter with A549-Dual [2] (irradiation: 8 Gy/4 fr) and in the experiment with A549-Dual [2] (irradiation: none) were 1.24 and 0.971, respectively.

As for `O=C(NC(CO)C(O)c1ccc([N+](=O)[O-])cc1)C(Cl)Cl` (stereo not given) [Chloramphenicol], the NF-kB reporter with A549-Dual [1] (irradiation: 8 Gy/4 fr) was 1.05; in the experiment on A549-Dual [1] (irradiation: none), 1.14. Besides, the ISRE reporter in the experiment on A549-Dual [2] (irradiation: 8 Gy/4 fr) stood at 0.973; in the experiment on A549-Dual [2] (irradiation: none) it was 0.898.

On to `O=C1[N-]S(=O)(=O)c2ccccc21.[Na+]` [Saccharin sodium salt hydrate], for which the NF-kB reporter came out at 0.939 in the experiment with A549-Dual [1] (irradiation: 8 Gy/4 fr) and 0.724 with A549-Dual [1] (irradiation: none). The ISRE reporter in the experiment on A549-Dual [2] (irradiation: 8 Gy/4 fr) is 1.19; in the experiment on A549-Dual [2] (irradiation: none), 0.86.

For the compound `COC(=O)C1=C(C)NC(C)=C(C(=O)OC)C1c1ccccc1[N+](=O)[O-]` [Nifedipine], the NF-kB reporter with A549-Dual [1] (irradiation: 8 Gy/4 fr) amounted to 1.03; in the experiment with A549-Dual [1] (irradiation: none), 1.11. For the same compound, the results for the ISRE reporter with A549-Dual [2] (irradiation: 8 Gy/4 fr) and with A549-Dual [2] (irradiation: none) were 0.938 and 0.683, respectively.

Consider `CC(CN1CC(=O)NC(=O)C1)N1CC(=O)NC(=O)C1.Cl` (stereo not given) [Dexrazoxane HCl (ICRF-187, ADR-529)], for which the NF-kB reporter was 0.835 with A549-Dual [1] (irradiation: 8 Gy/4 fr) and 1.75 in the experiment on A549-Dual [1] (irradiation: none). In addition, the values for the ISRE reporter with A549-Dual [2] (irradiation: 8 Gy/4 fr) and in the experiment on A549-Dual [2] (irradiation: none) were 0.844 and 4.78, respectively.

As to `CCOC(=O)NC1CCC2C(C1)CC1C(=O)OC(C)C1C2/C=C/c1ccc(-c2cccc(F)c2)cn1` (stereo not given) [Vorapaxar], the NF-kB reporter came out at 0.668 with A549-Dual [1] (irradiation: 8 Gy/4 fr) and 1.1 with A549-Dual [1] (irradiation: none). Further, the results for the ISRE reporter in the experiment on A549-Dual [2] (irradiation: 8 Gy/4 fr) and in the experiment on A549-Dual [2] (irradiation: none) were 0.736 and 1.59, respectively.

`CCC(C)C(=O)OC1CC(C)C=C2C=CC(C)C(CCC3CC(O)CC(=O)O3)C21` (stereo not given) [Lovastatin]: the NF-kB reporter with A549-Dual [1] (irradiation: 8 Gy/4 fr) came out at 1.11; in the experiment on A549-Dual [1] (irradiation: none), 1.95. The figures for the ISRE reporter with A549-Dual [2] (irradiation: 8 Gy/4 fr) and in the experiment with A549-Dual [2] (irradiation: none) were 0.383 and 1.15, respectively.

Consider `CCOC(=O)c1ccc(O)cc1` [Ethylparaben], for which the NF-kB reporter in the experiment on A549-Dual [1] (irradiation: 8 Gy/4 fr) came out at 0.896; in the experiment on A549-Dual [1] (irradiation: none) it was 0.932. Further, the ISRE reporter with A549-Dual [2] (irradiation: 8 Gy/4 fr) came out at 0.975; with A549-Dual [2] (irradiation: none), 0.823.

`N[C@H](Cc1ccccc1)C(=O)O` [D-Phenylalanine]: the NF-kB reporter was found to be 1.47 with A549-Dual [1] (irradiation: 8 Gy/4 fr) and 0.969 in the experiment with A549-Dual [1] (irradiation: none). Also, the ISRE reporter in the experiment on A549-Dual [2] (irradiation: 8 Gy/4 fr) was 1.52; in the experiment with A549-Dual [2] (irradiation: none), 1.04.

As to `CCOC(=O)C(CCc1ccccc1)NC1CCc2ccccc2N(CC(=O)O)C1=O.Cl` (stereo not given) [Benazepril HCl], the NF-kB reporter in the experiment with A549-Dual [1] (irradiation: 8 Gy/4 fr) is 0.773; in the experiment with A549-Dual [1] (irradiation: none), 0.893. In addition, the ISRE reporter stood at 0.873 in the experiment with A549-Dual [2] (irradiation: 8 Gy/4 fr) and 0.712 with A549-Dual [2] (irradiation: none).

Consider `CC(C)OC(=O)C(C)(C)Oc1ccc(C(=O)c2ccc(Cl)cc2)cc1` [Fenofibrate], for which the NF-kB reporter with A549-Dual [1] (irradiation: 8 Gy/4 fr) worked out at 0.931; in the experiment with A549-Dual [1] (irradiation: none), 0.992. The ISRE reporter turned out to be 0.97 in the experiment with A549-Dual [2] (irradiation: 8 Gy/4 fr) and 0.878 with A549-Dual [2] (irradiation: none).

For the compound `O=C(O)c1cc(O)c2c(c1)C(C1c3cc(C(=O)O)cc(O)c3C(=O)c3c(OC4OC(CO)C(O)C(O)C4O)cccc31)c1cccc(OC3OC(CO)C(O)C(O)C3O)c1C2=O` (stereo not given) [Sennoside B], the NF-kB reporter in the experiment with A549-Dual [1] (irradiation: 8 Gy/4 fr) worked out at 0.837; in the experiment with A549-Dual [1] (irradiation: none), 0.666. Besides, the ISRE reporter in the experiment on A549-Dual [2] (irradiation: 8 Gy/4 fr) amounted to 0.712; in the experiment on A549-Dual [2] (irradiation: none) it was 0.473.

On to `C[N+](C)(C)CCOC(N)=O.[Cl-]` [Carbachol], for which the NF-kB reporter in the experiment on A549-Dual [1] (irradiation: 8 Gy/4 fr) is 0.944; in the experiment on A549-Dual [1] (irradiation: none) it was 1.09. In addition, the ISRE reporter was determined as 0.606 in the experiment on A549-Dual [2] (irradiation: 8 Gy/4 fr) and 0.466 in the experiment on A549-Dual [2] (irradiation: none).

Consider `Cc1nc2n(c(=O)c1CCN1CCC(c3noc4cc(F)ccc34)CC1)CCCC2O` (stereo not given) [Paliperidone], for which the NF-kB reporter in the experiment on A549-Dual [1] (irradiation: 8 Gy/4 fr) was 1.02; in the experiment with A549-Dual [1] (irradiation: none), 1.08. In addition, the results for the ISRE reporter with A549-Dual [2] (irradiation: 8 Gy/4 fr) and in the experiment with A549-Dual [2] (irradiation: none) were 0.82 and 0.547, respectively.
